According to the supplement of paper PMC3334620:
Over roughly 33,000 sequences, “E-score (-0.5 to 0.5)” has its median near -0.041; the highest 2% begin near 0.37. The list shows a part of the results.

Biological target: T1, Ecm22 (UniProt Q05958)
T1 sequence: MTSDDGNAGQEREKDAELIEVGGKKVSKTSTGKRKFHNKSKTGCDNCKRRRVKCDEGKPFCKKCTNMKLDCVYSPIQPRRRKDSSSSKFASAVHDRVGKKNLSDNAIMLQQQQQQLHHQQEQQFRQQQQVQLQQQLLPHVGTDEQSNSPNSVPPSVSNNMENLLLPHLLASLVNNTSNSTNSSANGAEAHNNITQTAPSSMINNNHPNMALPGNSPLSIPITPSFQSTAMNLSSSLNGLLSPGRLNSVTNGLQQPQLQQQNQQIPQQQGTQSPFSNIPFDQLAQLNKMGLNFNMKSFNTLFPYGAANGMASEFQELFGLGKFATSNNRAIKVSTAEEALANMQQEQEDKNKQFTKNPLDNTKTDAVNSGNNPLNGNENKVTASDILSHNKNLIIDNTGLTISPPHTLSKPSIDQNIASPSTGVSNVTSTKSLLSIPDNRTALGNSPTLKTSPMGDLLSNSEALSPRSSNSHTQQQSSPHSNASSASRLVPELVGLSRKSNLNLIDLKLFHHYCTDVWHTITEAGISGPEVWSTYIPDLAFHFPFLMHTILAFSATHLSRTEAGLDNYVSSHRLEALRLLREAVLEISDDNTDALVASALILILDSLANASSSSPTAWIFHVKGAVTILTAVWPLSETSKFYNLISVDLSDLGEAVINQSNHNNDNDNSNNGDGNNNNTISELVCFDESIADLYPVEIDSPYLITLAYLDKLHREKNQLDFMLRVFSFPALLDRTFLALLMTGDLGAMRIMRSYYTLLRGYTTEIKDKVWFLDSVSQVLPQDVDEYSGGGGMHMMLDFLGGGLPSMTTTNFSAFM
Assay: PBM E-score (8-mer binding enrichment) (E-score (-0.5 to 0.5)); higher = stronger / more preferred TF binding; most listed sequences are background and not binding sites
Settings: protein concentration: 200 nM; construct: GST-full length
Experimental: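 Universal 'all 10-mer' protein binding microarrays (Agilent AMADID 015681) probed with GST-tagged S. cerevisiae TFs (full-length or DBD) made by in vitro transcription/translation (PURExpress), about 100-200 nM. Bound TF was detected with fluorescent anti-GST. Each ungapped 8-mer (which stands for itself and its reverse complement) is scored by the PBM enrichment score (E-score), a modified Wilcoxon-Mann-Whitney statistic from -0.5 to +0.5, computed with the Universal PBM Analysis Suite. Scale: above 0.35 generally sequence-specific binding.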

| Sequence | PBM E-score |
| --- | --- |
| GTTCACCA | 0.0888 |
| AATTCATC | -0.148 |
| AATGAGCA | -0.253 |
| AGCCCCAG | -0.153 |
| CGTTCTTC | 0.332 |
| GCGAAGAC | 0.101 |
| GAAAACCC | -0.0576 |
| ATGTCCAA | -0.0118 |
| TATGCTCA | -0.129 |
| TGCGTAAA | 0.228 |
| CCTTGCAA | -0.0998 |
| GCTGTGAA | -0.0356 |
| ACGGGAGA | 0.0694 |
| ATTCAAAC | 0.13 |
| ACAGGTTA | -0.161 |
| CCCAACCA | 0.0792 |
| AGTAGTCG | 0.238 |
| AGGAGTAC | -0.0263 |
| CACCATTC | -0.235 |
| ACCAATGA | -0.061 |
| AATTTTAT | 0.0365 |
| AGTCCGAA | 0.0505 |
| ATAGTTGG | -0.0165 |
| ACCGGGAC | -0.23 |
| GTGACGAA | 0.0112 |

| Sequence | PBM E-score |
| --- | --- |
| CCCAAGGG | -0.233 |
| AATAAGAG | 0.084 |
| ACGTCAGT | -0.0686 |
| GACGTATA | 0.365 |
| CACGCCAA | -0.0565 |
| ATAAAAGC | -0.14 |
| TTACCAAA | -0.0993 |
| AGTGGTTC | -0.113 |
| GATGAGGC | -0.197 |
| CCTGTACG | 0.4 |
| AGTGTCGG | 0.0128 |
| CACGTCGG | 0.227 |
| CAATCGGA | 0.00797 |
| AGAAAAGG | -0.249 |
| ATAAACGG | 0.408 |
| TACATACA | 0.111 |
| GATGATAC | 0.136 |
| GCTAATAA | 0.164 |
| CAGGCAGG | -0.155 |
| AATCGTCA | -0.00811 |
| GCCCGCGC | 0.0265 |
| CACCCCTG | -0.329 |
| ACCGTAGG | -0.172 |
| CGCGTTAA | 0.185 |
| CGGCGACG | 0.0233 |

| Sequence | PBM E-score |
| --- | --- |
| CCTATCCG | 0.17 |
| AATCGTGA | -0.152 |
| GGGAGATA | -0.114 |
| CGAACACA | 0.12 |
| AGAGAATC | -0.16 |
| CCGATCGC | 0.109 |
| AGTATGAT | 0.101 |
| TCATCGAA | -0.0125 |
| CGCGGTTA | -0.0243 |
| ACGTTTTG | -0.102 |
| GTCTAAAA | -0.00822 |
| CCGGTGAG | -0.158 |
| GGCGAGCA | -0.0165 |
| AAAGGTGA | -0.145 |
| GGATTGCA | -0.279 |
| GCGTAAGC | 0.173 |
| CCGTGTAG | 0.0955 |
| CAGCTATA | -0.0628 |
| CGCTAAGA | 0.149 |
| ATGCATAG | -0.191 |
| CTCAGTCC | -0.151 |
| CAACCATA | 0.0611 |
| CGAATCAA | 0.137 |
| CGCGTGCA | -0.187 |
| ACTAGCAG | -0.0203 |

| Sequence | PBM E-score |
| --- | --- |
| CTGTAGTC | 0.016 |
| AGCTCTAC | -0.162 |
| ATACTAAG | -0.0705 |
| CCTTGCCA | -0.247 |
| GAATTCCC | 0.013 |
| CCGAGAAA | 0.247 |
| ATGCTGCC | -0.13 |
| GAAGCGCA | 0.027 |
| GCCTCTAC | -0.123 |
| CCAGCAGC | -0.253 |
| AGGGTCAA | -0.0744 |
| GGTAATAC | 0.131 |
| ATAAGTTA | 0.0972 |
| GTCGTAAC | 0.397 |
| AGCCCTTA | -0.219 |
| ACCGATAA | 0.116 |
| ACAATCAA | 0.0141 |
| GACGGAGC | -0.0469 |
| CCCTAGCG | -0.365 |
| AAATGATG | 0.0115 |
| AACGACAA | 0.41 |
| ATCGGTGA | 0.0361 |
| AGTCCACG | -0.159 |
| ATTACCGA | 0.204 |
| CACATTCG | 0.182 |

| Sequence | PBM E-score |
| --- | --- |
| AGATTATC | -0.0971 |
| AATGCTCA | -0.135 |
| CTCCCTAA | 0.00444 |
| AGCGAAGG | 0.174 |
| CCGTTATC | -0.00824 |
| CTTTCCGA | 0.0876 |
| ATGACCGC | -0.0791 |
| CGCGAACA | 0.19 |
| AATTGCTC | -0.129 |
| ACTGATCA | -0.0874 |
| CCGCTTTA | 0.046 |
| ATAGATTA | 0.0844 |
| GCCCGAAA | 0.114 |
| GCCGTCCA | -0.149 |
| CATCGCAG | -0.0703 |
| GGGTGTTA | -0.174 |
| AGACGCTG | -0.187 |
| GGCTTCCA | -0.312 |
| ATGATAAC | 0.0703 |
| ATGCAACG | 0.168 |
| AGGTATGA | -0.00382 |
| ACAACGTC | 0.0302 |
| GGATTCCA | -0.03 |
| CACGGGTC | -0.15 |
| CGCCCCTC | -0.0406 |

| Sequence | PBM E-score |
| --- | --- |
| CAGATCTA | -0.184 |
| ATCACATA | 0.0886 |
| CACCATGA | -0.188 |
| GACGGTAC | 0.167 |
| GATGAGCC | -0.212 |
| ACTTCTCT | -0.0524 |
| CTGACTTA | -0.0814 |
| AATTGCCC | -0.214 |
| GAGACGGA | -0.0767 |
| TACCGTGA | -0.111 |
| CTTACATC | 0.0147 |
| ACTGTCAA | -0.0365 |
| ATGGTGCA | -0.097 |
| CTTGAGTC | 0.0219 |
| ATAGAGCG | -0.0931 |
| CCAGAACG | 0.197 |
| ATCGCCCG | 0.067 |
| ACCGGTCA | 0.00026 |
| AGCAGGCT | -0.23 |
| CCATCGTC | 0.00759 |
| CACTGGTA | -0.0898 |
| AATAGAAT | -0.0663 |
| GGTACACC | 0.0576 |
| ATCACTAG | -0.0424 |
| GTACGCAC | 0.264 |

| Sequence | PBM E-score |
| --- | --- |
| GAGTCCAA | -0.2 |
| CAGCTGTA | 0.0261 |
| TATTCGAA | 0.0638 |
| CACCGGTA | -0.0461 |
| TGACGGCA | -0.198 |
| CAACAGAC | 0.0564 |
| AATGTACT | 0.013 |
| CTAGTCCC | -0.258 |
| CAGAAAAC | -0.0302 |
| ACGGCTCG | 0.321 |
| GTCAACAC | -0.109 |
| CCGTGTGA | 0.0262 |
| CGTGCAGA | 0.0399 |
| TCTCGGAA | 0.159 |
| CATTCGAG | 0.146 |
| AATTAAGG | -0.141 |
| AGCCAAAG | -0.144 |
| CAGGGAAC | 0.216 |
| AAGAACCA | 0.0315 |
| AATTCAGT | -0.189 |
| AATACGCT | 0.121 |
| AAATGTGC | -0.00196 |
